# Experimental data reported in the BET-seq Pho4 binding data (Le et al. 2018).
# This is one part of the list. Values were computed here from the reads of four pooled replicates and scatter widely.
# Biological target: T1, Pho4 (S. cerevisiae) (UniProt P07270)
# T1 sequence: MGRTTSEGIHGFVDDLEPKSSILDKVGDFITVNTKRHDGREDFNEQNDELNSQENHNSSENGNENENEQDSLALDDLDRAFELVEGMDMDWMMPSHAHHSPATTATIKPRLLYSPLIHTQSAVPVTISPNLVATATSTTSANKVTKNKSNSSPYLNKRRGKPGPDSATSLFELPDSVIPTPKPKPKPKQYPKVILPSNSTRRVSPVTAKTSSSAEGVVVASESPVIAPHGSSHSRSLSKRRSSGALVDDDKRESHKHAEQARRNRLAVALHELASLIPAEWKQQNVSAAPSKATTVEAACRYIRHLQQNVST
# Assay: relative binding free energy (BET-seq); higher = weaker binding
# Details: reference: library average
row,Sequence,relative binding free energy [kcal/mol]
1,GGTGTCACGTGCGGCC,0.06
2,ATAAACACGTGGATGT,-0.11
3,CTGTTCACGTGGTTTC,0.26
4,CTTGTCACGTGGCATT,0.04
5,AAAGGCACGTGTAAAT,0.15
6,TTTGTCACGTGAATTT,0.33
7,CAGGTCACGTGTAGGA,0.13
8,GGCCGCACGTGGGGTA,-0.27
9,TGGGCCACGTGGTAGA,-0.21
10,TTGGTCACGTGGCGAA,0.07
11,TGAGACACGTGGGGTG,0
12,CATCGCACGTGGGGGT,-0.36
13,GGCAGCACGTGTCTGG,0.1
14,TCGTTCACGTGTTTTG,0.31
15,CGGTGCACGTGCTGGT,-0.01
16,TTGCTCACGTGTATAT,0.21
17,TGCGGCACGTGAGTAG,-0.02
18,GTAGCCACGTGTATTG,0.02
19,ATGGGCACGTGGAGGG,-0.19
20,CGTGCCACGTGTGGGT,0.04
21,TAGTGCACGTGTTGAC,0.06
22,AATGTCACGTGACGTT,0.15
23,TAATTCACGTGGACGT,0.19
24,AACGTCACGTGTTTTT,0.06
25,GCAGTCACGTGAATGG,0.42

row,Sequence,relative binding free energy [kcal/mol]
1,AGTCACACGTGGTGGG,0.01
2,TTAAGCACGTGCAGTG,-0.26
3,TAGTGCACGTGTTTTG,-0.04
4,TTGGACACGTGAGGCG,0.24
5,GGGCGCACGTGGGTGC,-0.33
6,TTGAGCACGTGCAGTG,-0.08
7,CTTTGCACGTGGTGTT,-0.06
8,ATTTTCACGTGAAGTA,0.55
9,CGGTGCACGTGTGTAG,0.12
10,GATGTCACGTGCGGGG,0.19
11,ATTAACACGTGTTTGA,-0.01
12,GATATCACGTGATGGA,0.32
13,GAATTCACGTGGTTCG,0.29
14,AGTTTCACGTGGGCCG,0.19
15,GTTCGCACGTGAGATT,0.26
16,CTGGACACGTGGGAGA,-0.09
17,GTTTGCACGTGCGGTT,0.04
18,GTAGGCACGTGAGATT,0.23
19,TGAGACACGTGGGTTA,-0.28
20,CTGGTCACGTGGCATA,0.12
21,ATCTCCACGTGGGGGT,-0.21
22,GGTTACACGTGGGATA,0.08
23,CATTCCACGTGGTGGG,-0.02
24,TCAGGCACGTGGGACG,-0.1
25,AATGACACGTGTGGCG,0.04

row,Sequence,relative binding free energy [kcal/mol]
1,TGTCTCACGTGATGGT,0.33
2,TGTGGCACGTGGGAGT,-0.17
3,TGCGTCACGTGCGGTT,0.11
4,TATTGCACGTGCAGGG,-0.17
5,TATATCACGTGGGCGG,0.03
6,CGTGTCACGTGATAGT,0.21
7,GCTCACACGTGTTTGG,0.13
8,TTCTTCACGTGTTGGA,0.26
9,TGGCTCACGTGTTGGT,0.23
10,TGAAGCACGTGGTTTA,-0.14
11,TGGTACACGTGCAGTG,-0.04
12,CGGGTCACGTGGGTTG,0
13,TTCGACACGTGGGTAG,-0.18
14,GGAGGCACGTGTTGCA,-0.11
15,TGATTCACGTGTACGT,0.2
16,CGGGTCACGTGATGCT,0.21
17,TGGGTCACGTGTTAAG,0.04
18,GAAGTCACGTGTGGAG,0.18
19,GATTGCACGTGTGGTG,0.2
20,TTACTCACGTGGAGTT,0.27
21,GACAGCACGTGGTGTG,-0.07
22,ATGGCCACGTGGGATT,-0.12
23,CGCGTCACGTGGGAGG,0.01
24,TTTACCACGTGGTAAG,-0.08
25,TGCCACACGTGGGTGG,-0.09

row,Sequence,relative binding free energy [kcal/mol]
1,GGGGGCACGTGAGATG,0.22
2,GGGGACACGTGGTGAC,-0.06
3,TAACGCACGTGAGTGG,0.04
4,GGTTACACGTGATAAG,0.24
5,GTAAACACGTGGAGTT,0.12
6,ATGTGCACGTGAAGTG,0.16
7,CAGGGCACGTGTGTCG,0.01
8,CTGGGCACGTGTGGGA,-0.08
9,TGCTGCACGTGGTATG,-0.03
10,TCTAGCACGTGGCGGG,-0.28
11,ATCGTCACGTGGAGAG,0.07
12,GTAAGCACGTGGTTCG,-0.08
13,CTTTACACGTGAAGGG,0.41
14,GGGGTCACGTGGTCGG,0.06
15,TAGTTCACGTGTGGTC,0.3
16,TCAGTCACGTGTGGGT,0.07
17,ATAGACACGTGAAGTT,0.16
18,ACATGCACGTGAGTGT,0.15
19,TAGTCCACGTGGTGGT,-0.01
20,ATTAACACGTGGGCGG,-0.17
21,GTGTACACGTGTACGG,0.1
22,CTTGTCACGTGCGTTT,-0.09
23,GGAGACACGTGTATAG,0.03
24,CGTGGCACGTGTTTAA,-0.01
25,TCGGTCACGTGTTGGA,0.16

row,Sequence,relative binding free energy [kcal/mol]
1,AGATGCACGTGTTTTG,-0.05
2,AGGGACACGTGTAGGT,0.05
3,GGGTTCACGTGGTTAG,0.27
4,ACGTACACGTGGGTTT,-0.12
5,CTGGCCACGTGAGGGG,0.09
6,TTAGTCACGTGTCGGA,0.07
7,GTGATCACGTGTAATT,0.29
8,TAAAGCACGTGTGTGT,-0.05
9,ATTACCACGTGATGTT,0.06
10,ACAGACACGTGTTGTG,0.04
11,TTAGGCACGTGTTTTG,-0.12
12,TGTGTCACGTGACTGA,0
13,TAGTGCACGTGGCGGC,-0.13
14,GGGTGCACGTGTCGGG,0.1
15,CGGTGCACGTGGGGGG,-0.11
16,CTTGGCACGTGAGTTG,0.13
17,GGGGACACGTGGTAGG,0.01
18,CTCTTCACGTGTTGTT,0.16
19,TAGTGCACGTGGAGTG,-0.07
20,CATGGCACGTGGAGCG,0
21,TGTCTCACGTGGAGTT,0.09
22,GTAAGCACGTGCGGGG,-0.15
23,GGAATCACGTGGTAAA,0.24
24,AAATTCACGTGGGATG,0.28
25,TTATTCACGTGAGCTA,0.47

row,Sequence,relative binding free energy [kcal/mol]
1,TAAGGCACGTGGGGCC,-0.09
2,TTTTCCACGTGAGGTT,0.19
3,GGAGGCACGTGGGTAC,-0.22
4,AGGCTCACGTGTGTAG,0.1
5,ATTTTCACGTGTTTAG,0.3
6,ATGTGCACGTGTTTCA,-0.17
7,CGTGCCACGTGTGTTG,-0.19
8,TAGGTCACGTGAAATG,0.2
9,AGTTACACGTGATTGT,0.22
10,CTAGGCACGTGTGTAT,-0.12
11,GTGGACACGTGGACGG,0.12
12,GTTATCACGTGGGGCT,0.01
13,TTCCGCACGTGGATGG,0.06
14,AGGGTCACGTGACGTT,0.16
15,ATAGTCACGTGGGTAA,-0.17
16,TCGTTCACGTGATTTA,0.25
17,GTAGTCACGTGCGGAG,0.05
18,CGTTTCACGTGGTGCA,0.24
19,ATCTACACGTGATGGT,0.23
20,TAGGGCACGTGCGTAT,-0.08
21,TTTTCCACGTGATGGA,0.27
